# Results: publication PMC4336329 (PLoS ONE, 2015)
# Screen size: about 310,000 compounds; about 14,000 (4.5%) showed an effect of 50% or more. The effect is printed as a negative number. The list shows a part of the results.
# Target: human ether-à-go-go-related gene (hERG) potassium channel (human, UniProt Q12809)
# Assay: primary screen, population patch clamp on CHO cells stably expressing hERG
# 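Note: peak tail current of the secondary pulse compared with the same well before compound.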
# Sequence of human ether-à-go-go-related gene (hERG) potassium channel (Q12809 whole entry, looked up): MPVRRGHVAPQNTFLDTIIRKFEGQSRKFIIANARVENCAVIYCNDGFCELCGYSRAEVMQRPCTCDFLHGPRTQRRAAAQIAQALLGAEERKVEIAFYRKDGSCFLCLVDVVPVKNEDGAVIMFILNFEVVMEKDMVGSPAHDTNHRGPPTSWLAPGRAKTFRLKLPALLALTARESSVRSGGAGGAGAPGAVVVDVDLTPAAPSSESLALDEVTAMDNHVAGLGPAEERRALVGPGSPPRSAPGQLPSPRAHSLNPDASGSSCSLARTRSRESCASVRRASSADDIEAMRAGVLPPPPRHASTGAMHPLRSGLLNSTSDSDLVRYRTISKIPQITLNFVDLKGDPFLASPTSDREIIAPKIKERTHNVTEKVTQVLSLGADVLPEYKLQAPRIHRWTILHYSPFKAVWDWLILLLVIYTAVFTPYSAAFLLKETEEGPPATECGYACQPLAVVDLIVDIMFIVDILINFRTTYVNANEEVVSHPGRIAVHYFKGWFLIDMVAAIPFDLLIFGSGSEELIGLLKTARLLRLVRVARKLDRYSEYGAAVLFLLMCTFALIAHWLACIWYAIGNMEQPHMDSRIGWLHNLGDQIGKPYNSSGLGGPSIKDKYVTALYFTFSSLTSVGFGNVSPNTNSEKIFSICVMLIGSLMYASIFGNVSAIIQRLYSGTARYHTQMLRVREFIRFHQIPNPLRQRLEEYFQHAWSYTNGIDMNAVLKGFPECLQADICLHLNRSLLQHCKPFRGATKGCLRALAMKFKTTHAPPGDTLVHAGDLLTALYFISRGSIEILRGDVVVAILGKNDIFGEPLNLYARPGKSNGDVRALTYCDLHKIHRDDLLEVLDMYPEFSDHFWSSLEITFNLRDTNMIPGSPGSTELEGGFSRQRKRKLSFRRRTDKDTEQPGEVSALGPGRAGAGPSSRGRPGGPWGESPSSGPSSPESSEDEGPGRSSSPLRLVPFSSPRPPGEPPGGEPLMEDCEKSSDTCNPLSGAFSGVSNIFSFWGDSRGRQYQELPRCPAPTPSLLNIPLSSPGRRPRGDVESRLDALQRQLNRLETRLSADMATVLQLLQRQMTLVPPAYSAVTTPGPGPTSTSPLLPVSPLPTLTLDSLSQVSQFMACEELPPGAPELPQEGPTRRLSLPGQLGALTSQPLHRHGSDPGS
row,SMILES,"hERG current change (%, negative = inhibition) at 10uM [%]"
1,Cc1cc(CSCc2ccc(Cl)cc2)no1,7.83
2,CCOC(=O)[C@H]1[C@H]2COc3ccccc3[C@@H]2N2C(=O)c3ccccc3NC(=O)[C@@]12C,-6.47
3,CN(C)c1ccc(C2Nc3ccccc3C(=O)N2NS(C)(=O)=O)cc1 (stereo not shown),14.2
4,CCOc1ccc(CC2CC(=O)NC2=O)cc1 (stereo not shown),12.5
5,CCOc1ccccc1-n1c(O)c(C=Nc2ccc(N(CC)CC)cc2)c(=O)[nH]c1=O,-0.709
6,O=C(NN1CCOCC1)c1cc(Cl)ccc1Cl,14.9
7,Nc1nonc1C(=O)NCCNC(=O)c1cccs1,-58.7
8,Cc1ccc2[nH]c(=O)c(CN(C)C(=O)c3ccccn3)cc2c1,5.92
9,O=C(COC(=O)C1CCN(S(=O)(=O)c2ccccc2)CC1)NCCc1ccccc1,-0.193
10,COC(=O)C1C2c3ccccc3C(c3ccccc32)C1C(=O)OC (stereo not shown),10.5
11,COCCNC(=O)CN(C(=O)CCC(=O)Nc1nccs1)c1ccc2c(c1)OCO2,7.83
12,N#CCCn1cc(C=C(C#N)C#N)c(-c2ccc(-c3ccccc3)cc2)n1,-1.48
13,COc1ccc(CCNC(=O)C2CCC(C(C)(C)C)CC2)cc1OC (stereo not shown),-2.46
14,CN1C(=O)C(O)(CC(=O)c2ccncc2)c2ccccc21 (stereo not shown),4.7
15,C/C(=N/NC(=O)c1ccccc1)C1=C(O)CC(C)(C)CC1=O,15
16,CN(C)C(=O)C1Cc2ccccc2CN1S(=O)(=O)c1ccc(F)cc1 (stereo not shown),15.2
17,COc1ccc(NC(=O)C(Br)C(C)C)cc1 (stereo not shown),25
18,COc1ccc2cc(S(=O)(=O)N3CCCC3)ccc2c1,10.2
19,CC(=O)c1sc(Nc2cccc(C)c2)nc1C,-4.43
20,Cc1ccc(S(=O)(=O)Oc2ccc(/C=C3\C(=N)N4N=C(S(C)(=O)=O)SC4=NC3=O)cc2)cc1,-29.9
21,Cc1c(NC(=O)C(C)N2C(=O)C3CCCCC3C2=O)c(=O)n(-c2ccccc2)n1C (stereo not shown),18.8
22,Cc1cc(C)c(N2C(=O)CCCC2=O)c(Cl)c1,0.934
23,C/C(=N\NC(=O)c1ccc(NS(=O)(=O)c2cccs2)cc1)c1ccccn1,-12.3

row,SMILES,"hERG current change (%, negative = inhibition) at 10uM [%]"
1,OC(c1ccccc1)c1nc2ccccc2[nH]1 (stereo not shown),12.9
2,COC(=O)N/N=C\c1ccc(OC/C=C/c2ccccc2)cc1,15
3,Cc1cccc(NC(=O)CSc2nc(N)c(NC(=O)c3ccccc3F)c(=O)[nH]2)c1,17.3
4,Cc1ccc(NC(=O)CN(C)C(=O)C(C)OC(=O)c2ccccc2NCCO)cc1 (stereo not shown),4.93
5,CC(=O)Oc1ccc(C(=O)O)cc1OC(C)=O,4.12
6,COc1cccc(NC(=O)Cn2c(=O)n(-c3cc(OC)c(OC)c(OC)c3)c(=O)c3ccccc32)c1,18.6
7,O=C(c1ccccc1)c1cc([N+](=O)[O-])ccc1N1CCCC1,-12
8,C[C@H](NC(=O)COc1ccc(Cl)cc1)C(=O)N1CCC2(CC1)NCCc1[nH]cnc12,20.5
9,CC(=O)Nc1cc(Br)ccc1O,1.29
10,Cc1ccc(C)c(NC(=S)N2CCC(NC(=O)c3cccc(F)c3)CC2)c1,1.08
11,O=C(Nc1ccno1)Nc1ccc(Cl)cc1Cl,20.9
12,O=C(COC(=O)COc1cccc(C(F)(F)F)c1)Nc1ccc(N2CCOCC2)cc1,12.3
13,Cc1ccc(-c2noc(CN(C)C(=O)c3ccoc3C)n2)cc1,-4.92
14,CC(C(=O)O)c1ccc2c(c1)[nH]c1ccc(Cl)cc12 (stereo not shown),25.7
15,Cc1cc(C)nc(N(C#N)Cc2ccccc2C)n1,-51.4
16,O=C(NCCN1CCOCC1)c1cc(-c2ccc(Cl)c(Cl)c2)on1,-17.6
17,CC(CN1CCN(C)CC1)OC(=O)c1ccc(Cl)cc1Cl.Cl (stereo not shown),-33.6
18,O=C(COC(=O)c1cccc([N+](=O)[O-])c1)NCC1CCCO1 (stereo not shown),8.06
19,C/C(Cl)=C\Cn1c(Nc2ccc(C)cc2)nc2c1c(=O)n(C)c(=O)n2C,4.71
20,CC1CCC/C(=C\Nc2ccccc2C(=O)O)C1=O (stereo not shown),-5.76
21,CS(=O)(=O)N(CC(=O)N1CCCC1)c1ccccc1F,19.4
22,Cc1ccc(S(=O)(=O)NNC(=O)c2c(O)c3ccccc3[nH]c2=O)cc1,1.41
23,COc1cccc(NC(=S)N(CCN(C)C)Cc2cccs2)c1,-10.5

row,SMILES,"hERG current change (%, negative = inhibition) at 10uM [%]"
1,Cc1cc(OCC(=O)NCC(O)c2ccccc2)c2c3c(c(=O)oc2c1)CCC3 (stereo not shown),16.1
2,CCc1ccc(NC(=O)CSc2nnc(C3CC3)n2CC2CCCO2)cc1 (stereo not shown),-22.4
3,CC(C)N(Cc1ccccc1)C(=O)CC(=O)N(Cc1ccccc1)C(C)C,-15.6
4,Cc1ccc(-n2ncc3c2CCCC3NC(=O)c2ccccc2N2CCOCC2)cc1C (stereo not shown),-34.1
5,Cc1nc2ccc(S(=O)(=O)NCC(=O)N3CCN(c4ccccn4)CC3)cc2s1,3.8
6,Cc1oc(-c2ccc(-c3ccccc3)cc2)nc1CN(C)C1CCOC1 (stereo not shown),-55.8
7,CC(Oc1ccc(Cl)cc1)C(=O)NCCCn1ccnc1 (stereo not shown),-7.09
8,O=C(NCC1CCCO1)c1cc2c([nH]c3ccccc32)c(-c2cccc(Br)c2)n1 (stereo not shown),-9.55
9,C=CCN1C(=O)/C(=C2\SC(N3CCOCC3)=NC2=O)c2cc(Br)ccc21,-7.39
10,CCCOc1cccc(C(=O)NC(=S)Nc2cccc(NC(=O)c3ccccc3Cl)c2)c1,3.2
11,Cc1ccc(OCC(=O)Nc2ccccc2-c2ccccc2)cc1,9.37
12,CCOCCCNC(=O)C(NC(=O)CNC(=O)c1ccccc1)c1ccc(OC)cc1 (stereo not shown),15
13,O=C(CSc1nnc(-c2ccncc2)o1)Nc1cc(F)ccc1F,12.1
14,Cn1c2ccccc2c2cnn(CC(=O)NCCCN3CCN(c4ccccc4F)CC3)c(=O)c21,-76.3
15,Cc1ccccc1OCc1nc2ccccc2[nH]1,1.95
16,COc1cc(Cl)ccc1NC(=O)COc1ccccc1C(=O)N1CCN(c2ccc(O)cc2)CC1,-53.9
17,COc1cc(/C=C(\C#N)c2nc3ccccc3[nH]2)ccc1O,6.67
18,Cc1c(O)cc2c(c1O)C(=O)CC(c1ccccc1)O2 (stereo not shown),1.79
19,CCOc1cc(N2CCOCC2)c(OCC)cc1NC(=O)COC(=O)COc1cc(C)cc(C)c1,-0.128
20,Cc1cc([N+](=O)[O-])ccc1NCc1ccc2c(c1)OCCO2,5.37
21,S=C(NCc1ccccc1)NCc1ccccn1,0.0213
22,COc1cccc(NC(=O)C2CCN(S(=O)(=O)c3ccc4[nH]c(=O)oc4c3)CC2)c1,8.6
23,CCOc1ccc(NC(=O)CC2C(=O)NCCN2C(=O)c2ccc(Cl)cc2)cc1 (stereo not shown),-34.8

row,SMILES,"hERG current change (%, negative = inhibition) at 10uM [%]"
1,CCOc1ccc(N(CC(=O)NC2CCCC2)S(=O)(=O)c2ccccc2)cc1,12
2,CCOC(=O)NC(=O)c1cn(CCN(C)C)c(=O)[nH]c1=O,18.6
3,Cc1c(C(=O)Nc2c3c(nn2C(C)(C)C)CS(=O)(=O)C3)cccc1[N+](=O)[O-],1.85
4,CN(CCOc1ccccc1)c1ccc(S(=O)(=O)N2CCCCC2)cn1,-11.6
5,O=S(=O)(NCC(c1cccnc1)N1CCOCC1)c1ccccc1 (stereo not shown),4.6
6,CC(C)CCc1noc(CN2CCN(c3ccc(Cl)cn3)CC2)n1,-34.2
7,C=CCOn1c(C)c(C(C)=O)c2c3nonc3ccc21,7.01
8,O=C(CCN1C(=O)/C(=C\c2ccccc2)SC1=S)NNC(=O)c1ccccc1O,11
9,CSc1ccc(/C=C2\NC(=O)NC2=O)cc1,5.37
10,Clc1ccc(Cl)c(OCCCCN2CCCCC2)c1,-59.2
11,COc1cc(C(=O)NC(C)c2ccccc2)ccc1OCC(=O)N1CCOCC1 (stereo not shown),2.96
12,COc1ccc(C2NC(=O)c3ccccc3N2)cc1OC (stereo not shown),13
13,CCCCOc1ccc(C(=O)N2CCCCCC2)cc1,3.1
14,Cc1ccc2[nH]c(-c3ccccc3)c(CN3CCCC3)c(=O)c2c1,-12.2
15,Nc1[nH]nc2c1NN(c1ccc(Cl)cc1Cl)N2,12.4
16,CCCS(=O)(=O)N1CCCC(C(=O)NCCc2ccc(Cl)cc2)C1 (stereo not shown),-17.9
17,O=C(Nc1ccc2c(c1)OCO2)C1CC(=O)N(c2cccc(Cl)c2)C1 (stereo not shown),23.9
18,O=C(Nc1cccc(C(=O)O)c1)/C(=C\C=C\c1ccccc1)NC(=O)c1ccccc1,10.3
19,CCc1nc(SCC(=O)Nc2ccc(C(=O)O)cc2)n[nH]1,5.9
20,Cc1c(C)n(C(=O)CSc2ncn[nH]2)c2ccccc12,-7.08
21,C=CCn1c(-c2cc(-c3ccccc3)sc2N)n[nH]c1=S,9.13
22,CCOC(=O)c1ccccc1NC(=O)COC(=O)C1CCN(S(=O)(=O)c2ccccc2C(=O)OC)CC1,2.86
